Experimental data taken from US20080153792A1, “Drug Identification and Treatment Method” (priority 2006, published 2008).
Where two headings read alike, the source gives them in different places. At least one structure is not confirmed: it was looked up by name or label, or the drawing left a doubt. Some results were stated once for a whole list of compounds, not compound by compound. Some compounds share one range, which may span the group rather than tell each member.

Legend:
[1] = test system: male Wistar rats, DNBS colitis; experiment: DNBS induced distal colitis; assay type: in vivo, rat; conditions: s.c. once a day for 6 days, 0.2 or 2.0 mg/animal/day; 25-30% decrease considered significant
Description: Treatment of gastrointestinal inflammation. The capacity of formula 1 compounds to limit or inhibit inflammation or symptoms of inflammation was shown using an animal model for inflammatory bowel disease. Groups of 3 male Wistar rats (180±20 grams) fasted for 24 hours before 2,4-dinitrobenzene sulfonic acid (DNBS) or saline challenge were used. Distal colitis was induced by intra-colonic instillation of 0.5 mL of an ethanolic solution of DNBS (30 mg in 0.5 mL of a 30% ethanol in saline solution) after which 2 mL of air was injected through the cannula to ensure that the solution remained in the colon. The volume used was 0.1 mL per injection of 2 and 20 mg/mL of compound such as androst-5-ene-3β,7β,17β-triol in a liquid formulation, which was administered by subcutaneous injection once a day for 6 days (0.2 mg/animal/day or 2.0 mg/animal/day). The formulation contained 100 mg/mL of compound in a non-aqueous suspension, e.g., 2% benzyl alcohol w/v, 0.1% Brij 96 w/v and equal volumes of PEG 300 and propylene glycol. Concentrations of 2 mg/mL and 20 mg/mL were obtained by diluting the […] with vehicle that lacked compound.
The first dose was given 30 minutes after DNBS challenge. […] The presence of diarrhea was recorded daily by examining the anal area. […] Before removal of the colon, signs of adhesion between the colon and other organs are recorded. […]

NF-κB = experiment: NF-κB-bla THP-1 β-lactamase reporter assay; assay type: cell-based, human; conditions: for maximum NF-κB inhibition / IC50: this protocol; for IC50 for inhibition of NF-κB activation: after LPS stimulation, 50% of the maximum inhibition the compound can induce, averages of 2-4 assays; for IC50: read-out: IC50
[2] = test system: bone marrow-derived mast cells (BMMC); experiment: mast cell stimulus-coupled degranulation (glucuronidase release); assay type: cell-based, mouse; conditions: similar protocols
Description: In another protocol, a population of mast cells was cultivated from murine bone marrow as follows. Briefly, bone marrows from Balb/C mice were flushed from the femur using PBS and a 27 g needle. The cells were cultured in a mixture of ⅔ RPMI-1640 with 19% FBS and cells that secreted IL-3. The bone marrow cells were allowed to differentiate for 18-25 days in the IL-3-containing mixture before being used for experiments. Bone marrow cells cultured in this manner have a phenotype similar to mucosal mast cells and are referred to as bone marrow-derived mast cells (BMMC).
The homogeneity of the in vitro propagated mast cells was checked by conventional flow cytometry techniques and staining for cell-type specific markers. Between days 14 and 21 of propagation, mature mast cells were harvested and prepared for the test cultures. The objective was to assess of the effect of compounds such as dehydroepiandrosterone on mast cell stimulus-coupled degranulation. Prepared mast cells were dispensed into test culture wells at a density of 1×10^7 cells/mL. In control cultures, mast cells were induced to degranulate after cross linking of IgE receptors with IgE antigen-antibody complexes. In parallel groups of cultures mast cells were preincubated dehydroepiandrosterone at various doses followed by activation using anti-IgE antibody. There was no detectable degranulation of mast cells as measured by release of […] from cytosolic storage granules of the cells in the absence of the stimulus. Introduction of anti-Ig-E receptor antibody to the cultures caused a significant release of O-glucuronidase.

## C[C@]12CC[C@H]3[C@@H]([C@@H](O)C=C4C[C@@H](O)CC[C@@]43C)[C@@H]1C[C@@H](O)[C@@H]2O [androst-5-ene-3β,7β,16α,17β-tetrol]
[1]
  decrease in net colon-to-body weight ratio: 25-35%
NF-κB
  maximum NF-κB inhibition: less than 80%
[2]
  potency relative to dehydroepiandrosterone: 10-1000 fold

## C#C[C@]1(O)CC[C@H]2[C@@H]3[C@@H](O)C=C4C[C@@H](O)CC[C@]4(C)[C@H]3CC[C@@]21C [17α-ethynylandrost-5-ene-3β,7β,17β-triol]
[1]
  decrease in net colon-to-body weight ratio: 25-35%
NF-κB
  IC50 for inhibition of NF-κB activation: 19 fM ± 11
[2]
  potency relative to dehydroepiandrosterone: 10-1000 fold

## C[C@]12CC[C@H]3[C@@H]([C@@H](O)C=C4C[C@H](O)CC[C@@]43C)[C@@H]1C[C@@H](O)[C@@H]2O [androst-5-ene-3α,7β,16α,17β-tetrol]
NF-κB
  maximum NF-κB inhibition: less than 80%
[2]
  potency relative to dehydroepiandrosterone: 10-1000 fold

## CC1(O)CCC2(C)C(CCC3C2CCC2(C)C3CCC2(C)O)C1 (stereo not drawn) [3α,17α-methylandrostane-3β,17β-diol]
NF-κB
  IC50: > 10 µM

## C=CC1(O)CCC2C3C(O)C=C4CC(O)CCC4(C)C3CCC21C (stereo not drawn) [3β,7β,17β-trihydroxy-17α-vinylandrost-5-ene]
NF-κB
  IC50 for inhibition of NF-κB activation: 12 fM ± 9.8

## C[C@]12CC[C@H](O)CC1=C[C@H](O)[C@@H]1[C@@H]2CC[C@@]2(C)[C@H]1CC[C@]2(C)O [3β,7β,17β-trihydroxy-17α-methylandrost-5-ene]
NF-κB
  IC50 for inhibition of NF-κB activation: 50.3 fM ± 13.9
  maximum NF-κB inhibition: less than 80%

## C[C@]12CCCCC1=C[C@@H](O)[C@@H]1[C@@H]2CC[C@]2(C)C(=O)[C@H](F)C[C@@H]12 [16α-fluoroandrost-5-ene-7α-ol-17-one]
NF-κB
  IC50: > 10 µM

## C[C@]12CC[C@H](O)C[C@@H]1CC[C@@H]1[C@@H]2CC[C@]2(C)C(=O)[C@H](I)C[C@@H]12 [16α-iodoepiandrosterone]
NF-κB
  IC50 for inhibition of NF-κB activation: 1.9 nM ± 0.8

## CC(=O)O[C@H]1CC[C@@]2(C)C(=CC[C@H]3[C@@H]4CC[C@H](O)[C@@]4(C)CC[C@@H]32)C1 [3β-acetoxyandrost-5-ene-3β,17β-diol]
NF-κB
  IC50: > 10 µM

## C[C@]12CC[C@H](O)CC1=CC[C@@H]1[C@@H]2CC[C@@]2(C)[C@H]1CC[C@]2(C)O [3β,17β-dihydroxy-17α-methylandrost-5-ene]
NF-κB
  IC50 for inhibition of NF-κB activation: 7.2 fM ± 4.7

## CC12CCC(O)CC1=CC(O)C1C2CCC2(C)C1CCC2(C)O (stereo not drawn) [3β,7α,17β-trihydroxy-17α-methylandrost-5-ene]
NF-κB
  IC50 for inhibition of NF-κB activation: 64 fM ± 36

## C[C@]12CC[C@H](O)C[C@@H]1CC[C@@H]1[C@@H]2CC[C@]2(C)C(=O)[C@@H](Br)C[C@@H]12 [16β-bromoepiandrosterone]
NF-κB
  IC50 for inhibition of NF-κB activation: 0.6 μM ± 0.2

## C[C@]12CC[C@H]3[C@@H](CCC4C[C@H](O)CC[C@@]43C)[C@@H]1C[C@@H](O)[C@@H]2O (stereo partly drawn) [3α,16α,17β-trihydroxyandrostane]
NF-κB; listed as androstane-3α,16α,17β-triol
  IC50: > 10 µM

## C[C@]12CCCCC1=C[C@H](O)[C@@H]1[C@@H]2CC[C@]2(C)C(=O)[C@H](F)C[C@@H]12 [16α-fluoroandrost-5-ene-7β-ol-17-one]
NF-κB
  IC50: > 10 µM

## CC12CCC(O)CC1CC(O)C1C2CCC2(C)C1CCC2(C)O (stereo not drawn) [17α-methylandrostane-3β,7α,17β-triol]
NF-κB
  IC50: > 10 µM

## CC12CCC(O)CC1=CC(=O)C1C2CCC2(C)C1CCC2(C)O (stereo not drawn) [3β,17β-dihydroxy-7-oxo-17α-methylandrost-5-ene]
NF-κB
  IC50: > 10 µM

## C[C@]12CC[C@H](O)C[C@@H]1CC[C@@H]1[C@@H]2CC[C@]2(C)C(=O)[C@H](Br)C[C@@H]12 [16α-bromoepiandrosterone]
NF-κB
  IC50 for inhibition of NF-κB activation: 8.8 μM ± 1.3

## C#C[C@]1(O)CC[C@H]2[C@@H]3[C@H](O)C=C4C[C@@H](O)CC[C@]4(C)[C@H]3CC[C@@]21C [3β,7α,17β-trihydroxy-17α-ethynylandrost-5-ene]
NF-κB
  IC50 for inhibition of NF-κB activation: 6.8 fM ± 5.6

## C#C[C@]1(O)CC[C@H]2[C@@H]3C(=O)C=C4C[C@@H](O)CC[C@]4(C)[C@H]3CC[C@@]21C [3β,17β-dihydroxy-7-oxo-17α-ethynylandrost-5-ene]
NF-κB
  IC50 for inhibition of NF-κB activation: 11.5 fM ± 3.5
